Data taken from patent US9920069B2, “Compounds for treatment of fluoroquinolone-resistant bacteria” (The Board of Trustees of the University of Illinois, priority 2014, dated 2018).

How the values were obtained:
S83L E. coli DNA gyrase = target: T1, S83L E. coli DNA gyrase (Escherichia coli, UniProt P0AES4, S83L); type: biochemical
T1 construct: His tag (pTrcHisA vector, purified on Ni-NTA); made in house; host or cells: E. coli One Shot BL21 Star (DE3)

S83R E. coli DNA gyrase = target: T2, S83R E. coli DNA gyrase (Escherichia coli, UniProt P0AES4, S83R); type: biochemical
T2 construct: His tag (pTrcHisA vector, purified on Ni-NTA); made in house; host or cells: E. coli One Shot BL21 Star (DE3)

[1] = test system: low level CIP resistant strains of S. aureus ATCC 29213 (ParC mutation); type: cell-based

O=C(O)c1cn(C2CC2)c2cc(N3CCNCC3)c(F)cc2c1=O [CIP, ciprofloxacin, reference compound]
inhibition of S83L DNA gyrase (S83L E. coli DNA gyrase): much less effective | inhibition of S83R DNA gyrase (S83R E. coli DNA gyrase): much less effective

Cc1cc(=O)n(C)c2c3c4c(cc12)c(C)cc(=O)n4CO3 [DNM, deoxynybomycin]
concentration giving significant buildup of OC DNA (S83L E. coli DNA gyrase): 0.17 µM | sensitivity of low level CIP resistant strains [1]: not sensitive | inhibition of S83R DNA gyrase (S83R E. coli DNA gyrase; in words): buildup of OC DNA

CCn1c(=O)cc(C)c2cc3c(C)cc(=O)n4c3c(c21)OC4 [DNM-2]
sensitivity of low level CIP resistant strains [1]: not sensitive | inhibition of S83R DNA gyrase (S83R E. coli DNA gyrase; in words): buildup of OC DNA

Like-named read-outs stand apart in the source and are kept apart here.
